No constants are given. Whether binding was seen depends on the method and setting. For some assays here: Binding seen in cells or lysates may run through a third protein. Some entries that bind do so weakly or less than the wild type. Each block holds one substance with its values, some of them ahead of it.
Tests used:
[1] = target: α5β1 integrin, endogenous in RPE-1 cells (human (endogenous in RPE-1)) (UniProt P08648+P05556); assay: co-IP; RPE-1 cells; 9EG7 (10 μg/mL) bound 30 min at 4 °C (active ligand-bound conformer); lysis; protein G-sepharose overnight at 4 °C; immunoblot for CHC
[2] = target: Gal3∆Nter-6xHis (Gal3 mutant whose N-terminal oligomerization domain was deleted) (human) (UniProt P17931); assay: negative stain EM; Gal3 or Gal3∆Nter (4 μM, 2 h at 21 °C) on inactive rat α5β1 integrin in nanodiscs held on cobalt beads, washed, eluted with 50 μM I3; the eluted particles counted as monomers or ring-shaped oligomers; both purified
[3] = target: Gal3-CFP (human) (UniProt P17931); assay: co-IP; as a5 but with surface-bound 9EG7 (active ligand-bound conformer)
[4] = target: Gal3-CFP (human) (UniProt P17931); assay: co-IP; cells transiently expressing Gal3-CFP; mAb13 (10 µg/mL) bound to the surface at 4 °C; lysis in TNE 1% NP40; GFP-Trap beads overnight at 4 °C; co-precipitated mAb13 (inactive bent-closed conformer) blotted
[5] = target: Human recombinant Gal3-6xHis (human) (UniProt P17931); assay: pull-down; RPE-1 cells with or without sialidase (neuraminidase); SETA-555 labelled His-tagged Gal3 (5 μg/mL) and mAb13 (5 μg/mL) bound in turn at 4 °C; lysate on cobalt-coated beads overnight at 4 °C; mAb13 (bent-closed conformer) blotted; only the target purified

Sequences of proteins named here, by UniProt entry; tags and fusion partners are left off. A change or cut given only in a name is not applied to a line headed by its entry.
UniProt P08648: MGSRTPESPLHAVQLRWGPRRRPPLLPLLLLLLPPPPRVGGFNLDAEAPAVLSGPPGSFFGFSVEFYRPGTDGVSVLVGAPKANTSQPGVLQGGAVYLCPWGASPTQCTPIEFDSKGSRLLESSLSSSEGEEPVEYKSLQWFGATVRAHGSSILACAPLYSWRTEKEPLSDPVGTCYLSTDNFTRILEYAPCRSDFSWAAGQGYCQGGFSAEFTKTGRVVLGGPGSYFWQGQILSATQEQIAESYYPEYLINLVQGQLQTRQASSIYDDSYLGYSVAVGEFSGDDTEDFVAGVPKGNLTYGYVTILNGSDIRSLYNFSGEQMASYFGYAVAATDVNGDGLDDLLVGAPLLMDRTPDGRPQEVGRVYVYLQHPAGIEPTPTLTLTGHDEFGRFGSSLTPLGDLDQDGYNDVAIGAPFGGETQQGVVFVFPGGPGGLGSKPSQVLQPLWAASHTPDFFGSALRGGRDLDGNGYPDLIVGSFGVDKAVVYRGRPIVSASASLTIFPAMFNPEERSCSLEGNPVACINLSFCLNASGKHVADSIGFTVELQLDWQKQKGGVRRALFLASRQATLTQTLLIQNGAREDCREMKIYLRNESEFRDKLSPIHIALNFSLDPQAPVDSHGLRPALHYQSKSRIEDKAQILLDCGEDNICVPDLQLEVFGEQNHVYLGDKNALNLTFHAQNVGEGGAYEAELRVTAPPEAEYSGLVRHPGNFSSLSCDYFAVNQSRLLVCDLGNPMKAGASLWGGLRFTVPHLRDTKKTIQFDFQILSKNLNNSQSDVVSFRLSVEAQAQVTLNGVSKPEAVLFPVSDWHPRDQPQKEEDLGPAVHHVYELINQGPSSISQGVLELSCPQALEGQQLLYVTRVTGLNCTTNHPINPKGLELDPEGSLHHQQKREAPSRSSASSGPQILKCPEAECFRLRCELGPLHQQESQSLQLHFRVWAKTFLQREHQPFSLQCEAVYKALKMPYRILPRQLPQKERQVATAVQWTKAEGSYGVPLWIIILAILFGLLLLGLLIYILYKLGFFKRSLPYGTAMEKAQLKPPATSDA
UniProt P05556: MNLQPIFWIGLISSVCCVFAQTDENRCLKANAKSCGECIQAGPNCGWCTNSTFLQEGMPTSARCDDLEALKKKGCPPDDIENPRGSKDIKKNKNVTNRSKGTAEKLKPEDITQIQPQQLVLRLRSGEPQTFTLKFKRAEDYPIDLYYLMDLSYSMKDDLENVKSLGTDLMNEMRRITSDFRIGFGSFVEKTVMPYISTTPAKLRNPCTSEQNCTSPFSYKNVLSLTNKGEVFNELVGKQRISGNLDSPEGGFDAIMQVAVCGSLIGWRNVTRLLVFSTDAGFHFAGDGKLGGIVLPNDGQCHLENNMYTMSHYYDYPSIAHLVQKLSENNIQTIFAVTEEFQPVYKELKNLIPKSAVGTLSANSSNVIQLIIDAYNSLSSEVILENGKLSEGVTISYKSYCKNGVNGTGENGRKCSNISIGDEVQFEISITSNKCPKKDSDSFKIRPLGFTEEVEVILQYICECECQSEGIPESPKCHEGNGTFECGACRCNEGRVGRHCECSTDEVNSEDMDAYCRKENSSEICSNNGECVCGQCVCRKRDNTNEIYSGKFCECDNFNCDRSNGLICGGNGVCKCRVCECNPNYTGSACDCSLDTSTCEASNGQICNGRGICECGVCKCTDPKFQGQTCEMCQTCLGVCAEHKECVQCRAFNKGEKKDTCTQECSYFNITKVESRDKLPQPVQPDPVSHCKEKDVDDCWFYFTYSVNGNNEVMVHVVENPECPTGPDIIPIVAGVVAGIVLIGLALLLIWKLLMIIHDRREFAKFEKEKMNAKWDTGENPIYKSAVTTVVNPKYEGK
UniProt P17931: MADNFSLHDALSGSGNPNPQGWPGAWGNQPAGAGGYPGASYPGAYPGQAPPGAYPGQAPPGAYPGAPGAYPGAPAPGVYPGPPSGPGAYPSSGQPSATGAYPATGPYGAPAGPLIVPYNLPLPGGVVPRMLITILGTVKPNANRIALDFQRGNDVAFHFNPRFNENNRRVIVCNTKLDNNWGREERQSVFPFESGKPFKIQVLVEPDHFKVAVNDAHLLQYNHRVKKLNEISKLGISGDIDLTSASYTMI
UniProt Q00610: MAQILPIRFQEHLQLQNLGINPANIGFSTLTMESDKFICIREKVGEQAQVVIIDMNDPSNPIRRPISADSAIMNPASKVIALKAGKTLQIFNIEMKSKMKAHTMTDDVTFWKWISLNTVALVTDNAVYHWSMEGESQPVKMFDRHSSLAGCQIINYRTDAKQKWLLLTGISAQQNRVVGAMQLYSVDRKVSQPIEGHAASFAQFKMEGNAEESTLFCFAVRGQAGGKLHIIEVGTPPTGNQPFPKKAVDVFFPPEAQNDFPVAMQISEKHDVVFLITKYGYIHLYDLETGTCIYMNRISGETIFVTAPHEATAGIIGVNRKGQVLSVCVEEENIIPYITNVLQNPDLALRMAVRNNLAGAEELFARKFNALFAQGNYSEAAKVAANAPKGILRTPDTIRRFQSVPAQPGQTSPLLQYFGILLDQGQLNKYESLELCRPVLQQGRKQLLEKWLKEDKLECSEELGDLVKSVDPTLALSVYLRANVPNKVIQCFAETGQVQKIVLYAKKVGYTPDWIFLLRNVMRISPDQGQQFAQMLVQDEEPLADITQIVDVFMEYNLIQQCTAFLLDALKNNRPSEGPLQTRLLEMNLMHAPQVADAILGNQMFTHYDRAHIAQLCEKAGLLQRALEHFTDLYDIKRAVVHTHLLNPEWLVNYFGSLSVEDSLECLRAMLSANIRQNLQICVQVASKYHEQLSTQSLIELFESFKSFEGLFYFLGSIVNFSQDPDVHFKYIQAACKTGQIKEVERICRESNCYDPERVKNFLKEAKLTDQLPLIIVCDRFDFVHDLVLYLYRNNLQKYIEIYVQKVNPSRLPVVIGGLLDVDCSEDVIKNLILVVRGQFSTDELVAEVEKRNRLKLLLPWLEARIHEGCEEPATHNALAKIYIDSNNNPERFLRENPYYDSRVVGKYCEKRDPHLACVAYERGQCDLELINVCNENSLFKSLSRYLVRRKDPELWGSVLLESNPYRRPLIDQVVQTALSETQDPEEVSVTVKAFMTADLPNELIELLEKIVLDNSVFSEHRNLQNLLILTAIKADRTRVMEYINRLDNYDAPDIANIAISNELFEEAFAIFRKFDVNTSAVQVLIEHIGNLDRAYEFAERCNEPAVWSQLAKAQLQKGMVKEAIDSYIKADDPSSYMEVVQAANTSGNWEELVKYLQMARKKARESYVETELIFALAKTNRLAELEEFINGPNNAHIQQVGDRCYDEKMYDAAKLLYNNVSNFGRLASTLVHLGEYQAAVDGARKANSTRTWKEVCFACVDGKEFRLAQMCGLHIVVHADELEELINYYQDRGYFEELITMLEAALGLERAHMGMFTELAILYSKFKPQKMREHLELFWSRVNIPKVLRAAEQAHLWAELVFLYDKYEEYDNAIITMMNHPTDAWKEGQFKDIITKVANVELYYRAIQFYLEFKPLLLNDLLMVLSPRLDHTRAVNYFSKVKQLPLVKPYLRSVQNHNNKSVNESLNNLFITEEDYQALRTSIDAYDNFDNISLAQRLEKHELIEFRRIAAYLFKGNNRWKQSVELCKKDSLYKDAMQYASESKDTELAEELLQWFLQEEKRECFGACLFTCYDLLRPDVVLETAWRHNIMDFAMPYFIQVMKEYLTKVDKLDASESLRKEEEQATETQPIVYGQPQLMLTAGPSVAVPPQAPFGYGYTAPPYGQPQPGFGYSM

- binding [1]: binds
Substance: clathrin heavy chain (CHC) (from UniProt Q00610 1-1675)

- binding [2]: no binding (tested: 4 µM)
Substance: Gal3∆Nter-6xHis (Gal3 mutant whose N-terminal oligomerization domain was deleted) (from UniProt P17931 115-250) (domain or fragment)

- binding [3]: binds weakly
- binding [4]: binds
- binding [5]: binds
Substance: α5β1 integrin, endogenous in RPE-1 cells (from UniProt P08648 42-1049; P05556 21-798) (complex)

Reference: article PMC12559291
